Screen size: about 48,000 compounds; about 550 (1.1%) were called active. Another 4% or so got no clear call; they are omitted. Rule as the data show it: active = potency below about 15 µM; inconclusive = mostly about 16 µM to 33 µM; inactive = weaker than that. Some of the results follow.
target: Lysosomal acid glucosylceramidase (Homo sapiens) (UniProt P04062); assay: Glucocerebrosidase; settings: purified enzyme, resorufin glucoside fluorescence (screen aimed at inhibitors), 20 min;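 also: the screen sought inhibitors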
Chain of UniProt P04062 (P04062 whole entry, looked up): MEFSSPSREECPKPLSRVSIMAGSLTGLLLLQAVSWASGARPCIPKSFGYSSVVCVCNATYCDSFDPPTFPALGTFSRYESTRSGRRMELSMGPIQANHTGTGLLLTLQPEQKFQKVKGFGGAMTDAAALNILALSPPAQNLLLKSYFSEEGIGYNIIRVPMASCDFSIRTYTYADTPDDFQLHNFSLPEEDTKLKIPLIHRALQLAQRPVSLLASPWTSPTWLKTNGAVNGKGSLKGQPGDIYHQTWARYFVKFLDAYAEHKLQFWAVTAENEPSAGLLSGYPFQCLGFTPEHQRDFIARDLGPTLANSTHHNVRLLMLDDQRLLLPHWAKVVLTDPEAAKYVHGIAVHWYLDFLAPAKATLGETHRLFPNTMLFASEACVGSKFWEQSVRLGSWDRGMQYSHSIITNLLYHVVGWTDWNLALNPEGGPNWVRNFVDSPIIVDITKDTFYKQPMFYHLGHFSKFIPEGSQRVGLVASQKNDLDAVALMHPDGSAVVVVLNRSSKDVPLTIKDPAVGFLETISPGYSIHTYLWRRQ
Method in brief: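 Normal human glucocerebrosidase (0.2 nM final) was assayed with resorufin β-D-glucopyranoside (30 uM final) in 50mM citric acid/KH2PO4, 10mM sodium taurocholate, 0.01% tween-20, pH 5.9. Compounds were titrated; fluorescence (Ex 548, Em 600) read after 20 min at RT.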
Potency is read from the fitted curve at half-maximal effect.

Potency, inactive:
O=c1nc(-c2ccccc2)cn[nH]1 > 76.9 µM
COC(=O)c1ccccc1NC(=O)c1noc2c1CCC2 > 76.9 µM
CCn1c(NC(=O)c2cccs2)nc2ccccc21 > 76.9 µM
CC(C)c1ccc(-c2nn[nH]n2)cc1 > 76.9 µM
COc1ccc(-c2ccc(NCCC3=CCCCC3)nn2)cc1OC > 76.9 µM
CCCc1cc(=O)oc2cc(C)cc(OCc3nn[nH]n3)c12 > 76.9 µM
O=C(c1cnn2c(C(F)F)cc(C3CC3)nc12)N1CCOCC1 > 76.9 µM
N#CCSc1ncnc2sc3c(c12)CCC3 > 76.9 µM
CCn1c(C)csc1=NC(=O)c1ccccc1O
COCCn1c(SCC#N)nnc1-c1ccccc1 > 76.9 µM
COC(=O)C1C(=O)C2=C(CC1C)NC(C)=C(C(=O)OCCOc1ccccc1)C2c1ccc(C)o1 (stereo unspecified) > 76.9 µM
CCOc1ccc(C2c3c(oc4ccccc4c3=O)C(=O)N2CCCN2CCOCC2)cc1 (stereo unspecified) > 76.9 µM
CC1(C)CC(=O)C=C(N2CCNCC2)C1 > 76.9 µM
CCOC(=O)CCCCNCc1ccccc1 > 76.9 µM
CCC(C(=O)N1CCN(S(C)(=O)=O)CC1)c1ccccc1 (stereo unspecified) > 76.9 µM
CC(=O)NCCSCCNC(C)=O > 76.9 µM
O=C(COc1ccc(Cl)cc1Cl)NCc1ccco1 > 76.9 µM
COC(=O)C1=CNC=C(C(=O)OC)C1c1ccc(Cl)cc1 > 76.9 µM
Nn1c(SCC(=O)NC2CCCCC2)nnc1-c1ccccc1 > 76.9 µM
CCOC(=O)c1cc2sc(C)cc2n1CC(=O)NCc1ccc(F)cc1 > 76.9 µM
Cc1noc(C)c1COc1ccc(C(=O)OCC(=O)c2ccc3c(c2)OCCO3)cc1 > 76.9 µM
COc1ccccc1C1C=C(c2ccc(Cl)cc2)Nc2nc(N3C(=O)CCC3=O)nn21 (stereo unspecified) > 76.9 µM
COC(=O)Cn1cnc2sc(C)c(S(=O)(=O)N3CCC(C)CC3)c2c1=O > 76.9 µM
Cc1ccc(-n2ncc3c(NCC4CCCO4)ncnc32)c(C)c1 (stereo unspecified) > 76.9 µM
CCCS(=O)(=O)N1CCC(C(=O)NCCc2ccc(OC)c(OC)c2)CC1 > 76.9 µM
Cc1ccc(C)c(S(=O)(=O)c2c(N)n(/N=C/c3ccco3)c3nc4ccccc4nc23)c1 > 76.9 µM
O=C(OCC1COc2ccccc2O1)c1ccccc1F (stereo unspecified) > 76.9 µM
O=C(OCC(=O)N1CCCC1)c1cncc(Br)c1 > 76.9 µM
COCC(=O)N1CCC(n2nnc3cc(F)ccc32)CC1 > 76.9 µM
CCn1c(C)cc2c(c1=O)C(c1ccccc1Br)C(C#N)=C(N)O2 (stereo unspecified) > 76.9 µM
CCOC(=O)C1C(=O)NC(N2CCN(CC)CC2)=NC1c1ccccc1 (stereo unspecified) > 76.9 µM
COc1ccc(CNC(=O)CN(CC2CCCO2)C(=O)CNS(=O)(=O)c2ccccc2)cc1 (stereo unspecified) > 76.9 µM
O=C1C(=O)N(CCOCCO)C(c2ccccn2)/C1=C(\O)c1ccccc1 (stereo unspecified) > 76.9 µM
Cc1cc(C(=O)CSc2nncs2)c(C)n1-c1c(C)n(C)n(-c2ccccc2)c1=O > 76.9 µM
O=C(Nc1cnc2ccccc2c1)N1CCOCC1 > 76.9 µM
COC(=O)c1ccc(NC(=O)CN2CCN(S(=O)(=O)c3cc(Cl)ccc3OC)CC2)cc1 > 76.9 µM
CCCCN(CC)CCCNC(=O)Cn1nc(Cc2ccncc2)c2ccccc2c1=O > 76.9 µM
Cc1cc(O)c(C(C)C)cc1NS(=O)(=O)c1ccccc1 > 76.9 µM
CCc1nnc(NC(=O)C2CCN(c3nc(C)cc(C)n3)CC2)s1
O=C(CSc1ncc(-c2ccc(F)cc2)[nH]1)NCc1ccco1 > 76.9 µM
COCCN(CCOC)c1cc(C)c(C#N)c2nc3ccccc3n12 > 76.9 µM
COc1ccc(C)cc1C(=O)CCC(=O)Nc1ccccc1N1CCOCC1 > 76.9 µM
CC(=O)Nc1cc2nn(-c3ccccc3)nc2cc1Cl > 76.9 µM
CC(C)CN(C(=O)COC(=O)Cc1n[nH]c(=O)c2ccccc12)C1CCS(=O)(=O)C1 (stereo unspecified) > 76.9 µM
CCOC(=O)c1cc(NC(=O)c2cc(C)on2)cc(C(=O)OCC)c1 > 76.9 µM
O=C(COc1ccc2ccccc2c1Br)N1CCOCC1 > 76.9 µM

Source: PubChem BioAssay AID360 (National Center for Advancing Translational Sciences (NCATS), 2006)
